# The other results are listed elsewhere or left out.
# B1: HPA (Helix pomatia), Q575S3 (protein)
# chain: MWAHLTGLLLICALSLSAAQRAQTGEIDCGSDSSWPKDPSDNPNRDNTREIVKHVTFSPQFCREPKVILSVTTLDAEHTKNLRYEARLKSVSPSGLSASCYSWHDGTIYRMKLSWLAVED
# Assays:
# Assay in all cases: glycan array binding signal (z-score within array); higher = stronger binding
# Settings in all cases: glycan notation: IUPAC condensed, linker removed
# Man(a1-3)[Man(a1-6)]Man = target: Man(a1-3)[Man(a1-6)]Man
# Outline: (§1)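 Columns mapping to the same glycan were averaged after glycan names were converted to IUPAC-condensed notation. The data come from 3228 arrays in the Consortium for Functional Glycomics database, limited to those with an available protein sequence. Binding is reported as a within-array Z-score averaged across arrays of one protein sequence and across linkers.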
# [1] = target: Man(a1-3)[Man(a1-6)]Man(a1-6)[Man(a1-2)Man(a1-3)]Man(b1-4)GlcNAc(b1-4)GlcNAc
# Outline: as §1
# [2] = target: Man(a1-3)[Man(a1-6)]Man(a1-6)[Man(a1-3)]Man
# Outline: as §1
# [3] = target: Man(a1-3)[Man(a1-6)]Man(a1-6)[Man(a1-3)]Man(b1-4)GlcNAc(b1-4)GlcNAc
# Outline: as §1
# [4] = target: Man(a1-3)[Man(a1-6)]Man(b1-4)GlcNAc(b1-4)GlcNAc
# Outline: as §1
# [5] = target: Man(a1-3)[Man(a1-6)]Man(b1-4)GlcNAc(b1-4)[Fuc(a1-6)]GlcNAc
# Outline: as §1
# Man(a1-6)Man = target: Man(a1-6)Man
# Outline: as §1
# Man(b1-4)GlcNAc = target: Man(b1-4)GlcNAc
# Outline: as §1
# MurNAc(b1-4)GlcNAc = target: MurNAc(b1-4)GlcNAc
# Outline: as §1
# Neu5Ac(a2-3)Gal = target: Neu5Ac(a2-3)Gal
# Outline: as §1
# [6] = target: Neu5Ac(a2-3)Gal(b1-3)GalNAc
# Outline: as §1
# [7] = target: Neu5Ac(a2-3)Gal(b1-3)GalNAc(b1-3)Gal(a1-4)Gal(b1-4)Glc
# Outline: as §1
# [8] = target: Neu5Ac(a2-3)Gal(b1-3)GalNAc(b1-3)Gal(b1-4)GlcNAc
# Outline: as §1
# [9] = target: Neu5Ac(a2-3)Gal(b1-3)GalNAc(b1-4)[Neu5Ac(a2-3)]Gal(b1-4)Glc
# Outline: as §1
# [10] = target: Neu5Ac(a2-3)Gal(b1-3)GalNAc(b1-4)[Neu5Ac(a2-8)Neu5Ac(a2-3)]Gal(b1-4)Glc
# Outline: as §1
# [11] = target: Neu5Ac(a2-3)Gal(b1-3)GalNAc6S
# Outline: as §1
# [12] = target: Neu5Ac(a2-3)Gal(b1-3)GlcNAc
# Outline: as §1
# [13] = target: Neu5Ac(a2-3)Gal(b1-3)GlcNAc(b1-2)Man
# Outline: as §1
# [14] = target: Neu5Ac(a2-3)Gal(b1-3)GlcNAc(b1-2)Man(a1-3)[GlcNAc(b1-4)][Neu5Ac(a2-3)Gal(b1-3)GlcNAc(b1-2)Man(a1-6)]Man(b1-4)GlcNAc(b1-4)GlcNAc
# Outline: as §1
# [15] = target: Neu5Ac(a2-3)Gal(b1-3)GlcNAc(b1-2)Man(a1-3)[Neu5Ac(a2-3)Gal(b1-3)GlcNAc(b1-2)Man(a1-6)]Man(b1-4)GlcNAc(b1-4)GlcNAc
# Outline: as §1
# [16] = target: Neu5Ac(a2-3)Gal(b1-3)GlcNAc(b1-3)Gal(b1-3)GlcNAc
# Outline: as §1
# [17] = target: Neu5Ac(a2-3)Gal(b1-3)GlcNAc(b1-3)Gal(b1-4)GlcNAc
# Outline: as §1
# [18] = target: Neu5Ac(a2-3)Gal(b1-3)GlcNAc(b1-3)GalNAc
# Outline: as §1
# [19] = target: Neu5Ac(a2-3)Gal(b1-3)GlcNAc(b1-4)Gal(b1-4)Glc
# Outline: as §1
# [20] = target: Neu5Ac(a2-3)Gal(b1-3)GlcNAc(b1-6)GalNAc
# Outline: as §1
# [21] = target: Neu5Ac(a2-3)Gal(b1-3)GlcNAc6S
# Outline: as §1
# [22] = target: Neu5Ac(a2-3)Gal(b1-3)[Fuc(a1-4)]GlcNAc
# Outline: as §1
# [23] = target: Neu5Ac(a2-3)Gal(b1-3)[Fuc(a1-4)]GlcNAc(b1-3)Gal(b1-3)[Fuc(a1-4)]GlcNAc
# Outline: as §1
# [24] = target: Neu5Ac(a2-3)Gal(b1-3)[Fuc(a1-4)]GlcNAc(b1-3)Gal(b1-4)[Fuc(a1-3)]GlcNAc
# Outline: as §1
# [25] = target: Neu5Ac(a2-3)Gal(b1-3)[GlcNAc(b1-6)]GalNAc
# Outline: as §1
# [26] = target: Neu5Ac(a2-3)Gal(b1-3)[Neu5Ac(a2-3)Gal(b1-4)]GlcNAc
# Outline: as §1
# [27] = target: Neu5Ac(a2-3)Gal(b1-3)[Neu5Ac(a2-6)]GalNAc
# Outline: as §1
# [28] = target: Neu5Ac(a2-3)Gal(b1-3)[Neu5Ac(a2-6)]GlcNAc(b1-3)[Fuc(a1-3)[Gal(b1-4)]GlcNAc(b1-6)]Gal(b1-4)Glc
# Outline: as §1
# [29] = target: Neu5Ac(a2-3)Gal(b1-3)]Neu5Ac(a2-3)Gal(b1-4)]GlcNAc
# Outline: as §1
# Neu5Ac(a2-3)Gal(b1-4)Glc = target: Neu5Ac(a2-3)Gal(b1-4)Glc
# Outline: as §1
# [30] = target: Neu5Ac(a2-3)Gal(b1-4)GlcNAc
# Outline: as §1
# [31] = target: Neu5Ac(a2-3)Gal(b1-4)GlcNAc(b1-2)Man
# Outline: as §1
binder,measurement,setting,value
B1,glycan array binding signal (z-score),Man(a1-3)[Man(a1-6)]Man,-0.266
same,glycan array binding signal (z-score),[1],-0.138
same,glycan array binding signal (z-score),[2],-0.263
same,glycan array binding signal (z-score),[3],-0.257
same,glycan array binding signal (z-score),[4],-0.255
same,glycan array binding signal (z-score),[5],-0.253
same,glycan array binding signal (z-score),Man(a1-6)Man,-0.257
same,glycan array binding signal (z-score),Man(b1-4)GlcNAc,-0.26
same,glycan array binding signal (z-score),MurNAc(b1-4)GlcNAc,-0.255
same,glycan array binding signal (z-score),Neu5Ac(a2-3)Gal,-0.263
same,glycan array binding signal (z-score),[6],-0.119
same,glycan array binding signal (z-score),[7],-0.243
same,glycan array binding signal (z-score),[8],-0.321
same,glycan array binding signal (z-score),[9],-0.264
same,glycan array binding signal (z-score),[10],-0.245
same,glycan array binding signal (z-score),[11],-0.26
same,glycan array binding signal (z-score),[12],-0.261
same,glycan array binding signal (z-score),[13],-0.246
same,glycan array binding signal (z-score),[14],-0.249
same,glycan array binding signal (z-score),[15],-0.228
same,glycan array binding signal (z-score),[16],-0.256
same,glycan array binding signal (z-score),[17],-0.242
same,glycan array binding signal (z-score),[18],-0.241
same,glycan array binding signal (z-score),[19],-0.252
same,glycan array binding signal (z-score),[20],-0.258
same,glycan array binding signal (z-score),[21],-0.249
same,glycan array binding signal (z-score),[22],-0.267
same,glycan array binding signal (z-score),[23],-0.237
same,glycan array binding signal (z-score),[24],-0.209
same,glycan array binding signal (z-score),[25],-0.255
same,glycan array binding signal (z-score),[26],-0.265
same,glycan array binding signal (z-score),[27],-0.264
same,glycan array binding signal (z-score),[28],-0.258
same,glycan array binding signal (z-score),[29],-0.257
same,glycan array binding signal (z-score),Neu5Ac(a2-3)Gal(b1-4)Glc,-0.256
same,glycan array binding signal (z-score),[30],-0.27
same,glycan array binding signal (z-score),[31],-0.235

# Reference: the supplement of paper PMC8728848
